System: Balb/c mice
Assay: Open space anxiety test: elevated platform with steep slopes
Conditions: diazepam 0.5, 1 and 3 mg/kg, amphetamine 5 and 10 mg/kg, listed as Diazepam

SMILES: CN1C(=O)CN=C(c2ccccc2)c2cc(Cl)ccc21 [diazepam]
- total number of crossings on the surface of the platform (motor activity): increase dose-dependently

From patent publication US20120079993A1, “B[…]” (UNIVERSITY OF DURHAM, priority 2010, published 2012)
